In PubChem BioAssay AID686970 (National Center for Advancing Translational Sciences (NCATS), 2013):
In all, about 360,000 compounds went through this assay and about 6,000 (1.7%) were called active. Inconclusive results, whose numbers are uncertain, are shown with a selection of clear calls. Calls come from the whole dose curve; as a rule, active = well fitted cell-killing curve with a large enough effect; inconclusive = small, poorly fitted or top-dose-only effect, or effect the other way; inactive = flat fitted curve, though single readings scatter. No potency is given beside an inconclusive call; the fits are too rough.
Potency is the fitted concentration of half-maximal effect; tags give direction and shape of the fitted curve.

Test: qHTS for induction of synthetic lethality in tumor cells producing 2HG: qHTS for the HT-1080-NT fibrosarcoma cell line;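 note: NT is the 2HG producing partner of a matched IDH1 knockdown line; nearly all actives have a fitted effect of over 55% in size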;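 for activity, negative = less viability: 0% = DMSO-treated cells and -100% = media-only wells without cells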
Settings: HT-1080-NT fibrosarcoma viability, CellTiter-Glo ATP luminescence, 48 h; activity, negative = less viability: at 46.1 µM (top of the series) unless noted
Summary of the method: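 Viability by CellTiter-Glo luminescence after 48 h compound exposure at 37C of HT-1080-NT cells (750/well, RPMI, 5% FBS). % activity scaled between DMSO wells and medium-only wells, then curve-fitted and categorized by curve class.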
For `CCN(CC)C(=O)C1=C(C)N(CCC2=CCCCC2)C(=O)C(CC(=O)NCCN2CCOCC2)C1` (stereo not given), the Potency was “inactive”.
For `Cc1c(C)n(Cc2ccccc2)c2ccc(C(=O)NCCCN3CCOCC3)cc12`, the Potency was inconclusive [cytotoxic, single point].
With `Cc1ccnc2nc(C(=O)Nc3ccc4c(c3)OCO4)nn12` the Potency was inconclusive [cytotoxic, single point].
In the case of `COc1ccc(Cl)cc1NC(=O)c1cc(-c2ccc(C)cc2O)n[nH]1`, the Potency is reported as inconclusive [rising, single point].
With `Cc1cc(C)nc(N2CCC(CNC(=O)CCc3ccccc3)CC2)n1` the Potency was “inactive”.
With `O=C(Nc1cccc(Cl)c1)N1CCN2C(=O)c3ccccc3C12c1ccccc1` (stereo not given) the Potency was inconclusive [cytotoxic, single point].
With `CC(C)(C)C1CCC(OCC(O)CN2CCN(c3ccccn3)CC2)CC1` (stereo not given) the Potency was inconclusive [cytotoxic, single point].
In the case of `CC(=O)c1cccc(-c2ccnc3c2CC(C(=O)Nc2cccc(OC(F)(F)F)c2)O3)c1` (stereo not given), the Potency is reported as inconclusive [cytotoxic, single point].
With `O=C(CSc1nnc(CNC(=O)c2ccc(F)cc2)o1)NCC1CCCO1` (stereo not given) the Potency was “inactive”.
For `O=C(Nc1ccc(OCC(F)(F)C(F)F)c(C(F)(F)F)c1)c1ccccc1`, the Potency was inconclusive [cytotoxic, single point].
For `Cc1cc(Br)ccc1NC(=O)CNC(=O)Cc1ccc(S(=O)(=O)N2CCOCC2)s1`, the Potency was “inactive”.
For `CN1CCN(NC(=O)c2cc(S(=O)(=O)N3CCOCC3)c(Cl)cc2Cl)CC1`, the Potency was “inactive”.
For `CCOCC(=O)Nc1ccc(S(=O)(=O)N2CCC(c3nc4ccccc4[nH]3)CC2)cc1`, the Potency was “inactive”.
With `COc1cccc(-c2cnc3c(NC(C)=O)cc(-c4cc(OC)c(OC)c(OC)c4)cn23)c1` the Potency was inconclusive [cytotoxic, single point].
In the case of `Cc1[nH]c(C)c(S(=O)(=O)Nc2cccc(Cl)c2C)c1C(=O)N1CCCC1`, the Potency is reported as “inactive”.
For `O=C(CNC(=S)N(CCCN1CCOCC1)Cc1cccs1)NC1CCCCC1`, the Potency was “inactive”.
For `COc1ccccc1NC(=S)N(Cc1cccnc1)Cc1ccco1`, the Potency was “inactive”.
For `NC(=O)c1nsc(C(=O)N(Cc2ccco2)C(C(=O)NCC2CCCO2)c2ccc(O)cc2)c1N` (stereo not given), the Potency was inconclusive [rising, single point].
With `CCOC(=O)c1c(C)n(C)c2ccc(OCC(O)CNC(CC)CO)cc12` (stereo not given) the Potency was “inactive”.
In the case of `CCCCN1C(=O)C2ON(c3ccccc3C)C(c3ccco3)C2C1=O` (stereo not given), the Potency is reported as inconclusive [cytotoxic, single point].
With `CCN(CC)c1ccc(NC(=O)Nc2cccc3ccccc23)cc1` the Potency was inconclusive [cytotoxic, single point].
In the case of `Cc1sc(NC(=O)COc2ccccc2)c(C#N)c1C`, the activity, negative = less viability is reported as inconclusive: 24.5%.
With `CCOC(=O)C1CCN(C2=C(NS(=O)(=O)c3ccc(Br)cc3)C(=O)c3ccccc3C2=O)CC1` the Potency was inconclusive [cytotoxic, single point].
For `CCc1ccc(CN(C)C(=O)c2cc(COc3cc(C)c(Cl)c(C)c3)on2)nc1`, the Potency was inconclusive [cytotoxic, single point].
In the case of `Cc1ccccc1OCc1nc2ccccc2c(=O)n1/N=C/c1c[nH]c2ccccc12`, the Potency is reported as inconclusive [cytotoxic, partial curve].
In the case of `Cc1sc2ncnc(N/N=C/c3cccc(O)c3)c2c1C`, the Potency is reported as inconclusive [cytotoxic, single point].
For `O=C(NCCN1C(=O)S/C(=C\c2ccc(OC(F)F)cc2)C1=O)C1=COCCO1`, the Potency was inconclusive [cytotoxic, single point].
For `COc1ccc(CNC(=O)COc2ccc(C(=O)c3ccc(F)cc3)cc2)cc1`, the Potency was inconclusive [cytotoxic, full curve].
With `O=C(Nc1ccccc1Cl)c1c(F)c(F)c(F)c(F)c1F` the Potency was “inactive”.
For `CCN(CC)C(=O)c1cccc(-c2csc(C(C)(O)c3ccncc3)n2)c1` (stereo not given), the Potency was inconclusive [cytotoxic, single point].
In the case of `COCCN1C[C@@H](CO)O[C@@H](n2cnc3c(N4CCN(CCO)CC4)ncnc32)C1`, the Potency is reported as inconclusive [rising, single point].
With `COc1ccc(C2CC(c3ccc(OC)cc3)n3nc(NC(=O)c4cccs4)nc3N2)cc1` (stereo not given) the Potency was inconclusive [cytotoxic, single point].
In the case of `O=C(NCCCSc1ccccc1)c1cc(Br)ccc1O`, the Potency is reported as inconclusive [cytotoxic, single point].
In the case of `C=CCOc1ccc(/C=C2/C(=O)ON=C2C)cc1OCC`, the Potency is reported as inconclusive [cytotoxic, single point].
For `COc1ccc(CCC(=O)NCC2CCCCC2)cc1OC`, the Potency was “inactive”.
For `Cc1ccc(N(CC(=O)NCc2ccc3c(c2)OCO3)S(=O)(=O)c2c(C)noc2C)cc1`, the Potency was “inactive”.
With `COc1cccc(-c2csc(N3CCN(C(=S)Nc4cccc(C)c4)CC3)n2)c1` the Potency was “inactive”.
With `C[C@H](CO)N1C[C@H](C)[C@@H](CN(C)S(=O)(=O)c2cccs2)Oc2ccc(NC(=O)Nc3ccc4c(c3)OCO4)cc2C1=O` the Potency was “inactive”.
In the case of `O=S(=O)(CCN(CCS(=O)(=O)C(F)(F)F)CC1CCCO1)C(F)(F)F` (stereo not given), the Potency is reported as “inactive”.
With `CC(C)c1ccc2nc(NC(=O)C3CC3)sc2c1` the Potency was “inactive”.
In the case of `CC(C)OC(=O)c1cc(NC(=S)Nc2ccc([N+](=O)[O-])cc2)cc(C(=O)OC(C)C)c1`, the Potency is reported as inconclusive [cytotoxic, single point].
In the case of `Cc1cccc(NC(=S)NC2CC3CCCC(C2)N3Cc2cccs2)c1C` (stereo not given), the Potency is reported as active: 11.2 µM.
With `Cc1nn2c(NCCCn3ccnc3)cc(C(C)C)nc2c1-c1ccccc1` the Potency was active: 14.6 µM.
For `Cc1nn(Cc2ccccc2Cl)c2sc(C(=O)OC3CCCC3=O)cc12` (stereo not given), the Potency was “inactive”.
In the case of `COc1cc(CN2CCCC(C(=O)c3ccccc3SC)C2)cc(OC)c1` (stereo not given), the Potency is reported as inconclusive [cytotoxic, single point].
With `CC1=C(SCCC#N)S/C(=C2\SC(C)=C(SCCC#N)S2)S1` the Potency was inconclusive [cytotoxic, single point].
For `O=C(/C=C/c1ccco1)Oc1cccc2cccnc12`, the Potency was inconclusive [cytotoxic, single point].
With `CCN1CCc2c(sc(NC(=O)c3cc4ccccc4cc3OC)c2C(N)=O)C1` the Potency was active: 6.51 µM.
In the case of `C=CCNc1ncnc2c1ncn2[C@H]1CN(Cc2ccc(F)cc2)C[C@@H](CO)O1`, the Potency is reported as inconclusive [rising, single point].
For `COc1cc(OC)cc(C(=O)Nc2ccc(-c3nc4ccccc4o3)cc2)c1`, the Potency was inconclusive [cytotoxic, partial curve].
With `O=S(=O)(Nc1ccccn1)c1ccc(C2CCCCC2)cc1` the Potency was inconclusive [cytotoxic, single point].
For `CCOC(=O)c1c(NC(=O)C2CCCCC2)sc2c1CCN(C(C)C)C2`, the Potency was inconclusive [cytotoxic, partial curve].
In the case of `CCOc1ncccc1C(=O)OCC(=O)NC1CCCCC1`, the Potency is reported as “inactive”.
For `CCOC(=O)c1c(-c2ccccc2)oc2ccc(OC(C)=O)cc12`, the Potency was inconclusive [cytotoxic, single point].
In the case of `CCCCCCCCCCCCCCCC(=O)OC(CC(=O)O)C[N+](C)(C)C` (stereo not given), the Potency is reported as active: 9.2 µM.
In the case of `NC(=O)CNC(=O)[C@@H]1CC2(CC(c3ccccc3)=NO2)CN1C(=O)c1ccc(Br)cc1` (stereo not given in full), the Potency is reported as “inactive”.
For `COc1cccc(-c2nnc(SCCOc3ccc4c(C)cc(=O)oc4c3)o2)c1`, the Potency was inconclusive [rising, full curve].
For `CC(=O)c1ccc2c(c1)N(Cc1ccccc1)C(=O)C(C)S2` (stereo not given), the Potency was inconclusive [rising, single point].
In the case of `CCCCCCCCCCCCCCCC(=O)NCCO`, the Potency is reported as inconclusive [rising, partial curve, poor fit].
In the case of `CCOC(=O)C(C)NC(=O)C(NC(=O)C1CCC(CC)CC1)C(C)C` (stereo not given), the Potency is reported as “inactive”.
For `CC(C)C1/C(=N/O)CC(c2ccccc2)NC1c1ccccc1` (stereo not given), the Potency was inconclusive [cytotoxic, single point].
For `COc1ccc(CN(C(=O)CSc2nnc(-c3ccccc3C)o2)c2ccc(F)cc2)cc1`, the Potency was inconclusive [cytotoxic, single point].
With `Cc1nn(C)c(=O)n1-c1ccc(OCc2ccccc2)cc1` the Potency was inconclusive [cytotoxic, single point].
In the case of `O=C(NCCN1CCOCC1)c1cc(-c2ccc(Cl)s2)nc2ccccc12`, the Potency is reported as inconclusive [cytotoxic, single point].
In the case of `O=C(N/N=C/c1cccc(Br)c1)c1ccc(Cn2cc(Br)cn2)o1`, the Potency is reported as inconclusive [cytotoxic, single point].
In the case of `Cc1cc(C(=O)CSc2nc3ccccc3c(=O)[nH]2)c(C)n1CC1CCCO1` (stereo not given), the Potency is reported as inconclusive [cytotoxic, partial curve].
With `Cc1ccc(S(=O)(=O)C2(S(=O)(=O)c3ccc(C)cc3)CCCC2)cc1` the Potency was inconclusive [cytotoxic, single point].
In the case of `Cc1ccc(Sc2ccc(NC(=O)CCN3C(=O)NC4(CCCC4)C3=O)cc2)c(C)c1`, the Potency is reported as inconclusive [cytotoxic, single point].
In the case of `OC(c1ccccc1)c1nc(-c2cccc(C(F)(F)F)c2)cs1` (stereo not given), the Potency is reported as inconclusive [cytotoxic, single point].
In the case of `COc1ccc(C)cc1S(=O)(=O)N1CCC(C(=O)NCCc2ccccc2)CC1`, the Potency is reported as “inactive”.
